This is one part of the list. At the low end of the ranking the order means little. The protein was read in a cell extract, so binding may be indirect.
molecular target: T1, HNF4alpha8 (COS-7 nuclear extract) (UniProt P41235-5); experiment: protein-binding microarray; conditions: COS-7 nuclear extract on double-stranded Agilent 4x180k PBM; binding buffer, salt, pH and temperature not given; high values mean tight binding; double strand, one strand shown; sequences stand for … in …GCCTAGGGAGATTAGAGTATCGGTCGA
T1 sequence: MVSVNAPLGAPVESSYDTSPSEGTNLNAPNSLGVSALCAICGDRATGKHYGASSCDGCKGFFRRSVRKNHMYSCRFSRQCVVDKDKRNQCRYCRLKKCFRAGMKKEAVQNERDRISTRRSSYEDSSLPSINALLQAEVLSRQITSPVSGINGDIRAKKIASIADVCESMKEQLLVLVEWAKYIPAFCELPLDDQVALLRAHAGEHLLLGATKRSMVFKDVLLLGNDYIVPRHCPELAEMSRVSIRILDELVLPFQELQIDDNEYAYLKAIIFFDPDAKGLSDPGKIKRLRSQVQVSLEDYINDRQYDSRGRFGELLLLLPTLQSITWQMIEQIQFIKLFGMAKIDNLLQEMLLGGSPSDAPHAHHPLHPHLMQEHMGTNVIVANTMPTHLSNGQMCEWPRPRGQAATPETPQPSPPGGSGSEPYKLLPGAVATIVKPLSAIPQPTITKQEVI

Sequence | binding signal (log2 normalized intensity)
CAACTCTAGGAGCATGTCAAAAGCTAAATA | -1.26
AGAGACAGTGGAATCTACAGAATTCTCATG | -1.36
GGGATTTTCTCAGCTCTCCTCTGCCTCCAG | -1.23
CACCTTTACCCCCACTCTCCGCTGGCCTGT | 4.34
CCTTCCCCTTTTTCTGTAAAGCTTTATTTT | 1.42
AGCACACCTTTTTTTCATGCAAATTTCCGT | 0.475
CAGGGGAGAGAGGCAAGATCCGAAGTCTAG | -1.28
GTTTGATCACAAGACATGAAGATGCAGAAC | -1.26
TCTTTGCTCTCCTCCTAATCACTGCCCTTT | 4.32
TGTTAATGGCACTTCGTTTCAAAGTCCAGT | 5.24
GGTGGGTGGGAAGGGATCAGAAATTGATTT | -0.702
GACACCCGCTGGCGCCATCCAAAGGCCCGA | -1.19
GGAATGGGTATAACCTTCTTCTATGCCCTC | 2.85
CAGTAAGTTTACTTCATCTAAGTGGGTCTA | 1.5
AGTGCGATGATCATGGCTCACTGCACCTTG | 0.737
AAGTTTCAGGCTATGAATGAAGTCTTTTCC | -0.0319
GCTGACCCTCTCCCCACCATTAACCCTACA | 4.09
TAACATCTAAGATTGGCCCTGATAATCAAT | -1.21
GGGTCATGGAGCTGGAGGGCAAAGGTCAGA | 8.54
TGCCCTGGATCTTGAAGCAGAAAACCACTG | -1.47
AATCCAGACACTTTGGCTCCAGAGTCCACA | 3.15
AAGCATACAGATTACATCTCCAGCTTATCT | -1.39
CATTCTGCTGCTCTTTAATCCTAATAATCC | -0.0986
TTGGACTCTGCCCTTGGCCTACTTAGTCCA | 4.47

Sequence | binding signal (log2 normalized intensity)
TCTGCTTCCTGCTACAGAGCTCAGATTTCA | -1.3
GAGGCCCTCTGTTGCTTCAAAGGGCAAAAG | 2.21
GACCCTGGGCTTAGTTGCTCGCTCCTTAGG | -0.962
AGATACTCACCAGTGGGCCCAGAGCACAAC | -1.28
CTGTGACCATCTCCTTTTGTGAGAGGTCAA | 3.59
TTGCTTTTCACAGTCGATCTTTGACCGCTG | 6.09
ATCTAAGATTCCCCCTACCCTCAATATCTG | 4.26
TACAGGTGAATTTCAGTGCCCTTTGAGATT | 4.04
TTGCCATTGTACAGGTTCCCTCATGATTTA | 0.89
TTGCCTTGTTTGTTTTGAGGGTTAAAGGAG | 1.63
ATACGATAATGTCAAACATCTTATATCAAC | -0.453
ATCTGGAGGGGGCAGGACAGCAGGAGTGGG | -1.33
TCAAAGAATTTAACACCAGATAAACAGAAG | -0.982
CATAAAAGTTCTCATGCTAAAAGTTGAATT | -0.111
CCCAGTTCATAGGTCAATTCTTTGAAGTCT | 3.86
AAGATCATTCCAGGAATGTTCAAGAAGTTC | 0.0918
GCCTGGCAAGACTTCTTCAGGGAGACTTCC | -1.22
ACAGGGTGATCAGAGATCTAGGTGAGGGAT | -1.22
TAACTGTATAACCTGGAACTGAAAGAGACC | -1.25
GAGTGGGAGGCTGGGGCCTCCTGGCTGGGC | -1.34
GATCACCCAGGTCCAAGTCACTATCACCTC | -0.309
GGGCGTGTGTTAGACTTTGGACCTGGCCTG | 7.98
AAACTGGGCAAAGGTCAGGATCTCAGCCGC | 5.23
GAAGATAGCTTTAAAGACCAAAGATCACAG | 2.14

Sequence | binding signal (log2 normalized intensity)
GGTTAAAAGGACAACCTTCGGCCGGGCACG | 1.39
GGGATTATGGCCGGCCCCTGGAATGCTGAG | -1.26
AAACATCTAATGAACTGATTAGAACATTAA | -0.884
GGGCCCAGGGTTCTCTGTGACCTTTGGAAG | 9.36
TGGACTATGTTTACACAGCCTTGTAGCAAG | -1.03
AGCAAGTTTTATATGAAAACAAAGGAAACC | 0.0339
AAACGTATGACTTTGGAGCACTCATTCCTA | -1.28
GAGTGTCCTGCCCCCTGGAGGAGTGAGGGA | 1.45
CAGAAGAAACATGCGATACTTGACCTGCAA | 2.7
TTACACAAAATCGCCACTACAAAGGGAATC | -1.36
CTCAGGAACTTTGTTTGTGTTTCCCTCCCT | 3.05
ATGCAACTTTTAATCAGAGCAGTTCAGCTC | -1.38
TTCCAGCCTCCTGCTCTGGGCTTTCTCTGC | -1.34
CTTCCATTGTGATTCCTGTGATACCTTCTT | 1.69
GCTACTGTGGTTCCCAAGAAGAGCCCAGAC | -1.36
GCACAGGGTTGAGTGGTGACTGAAGTCCAA | 2.43
GACTGATAAGGCTAAGTGGAGGATTTGGGT | -1.13
CCACGCACTCGCCTGACTCCCTGACGCCAT | -1.36
CTAAAGTCCAAAGTCTCAACTAAGTGTTAT | 4.57
TTTGTGTGTTTAATGTTTTCATTCTGATTT | 1.31
AGGAGAATCGCTTGAACCCAGGGGACGGAA | -0.93
TCCAAATGATAATGCCAAGGACTGAAAGAA | -1.14
CCTGGGCTGGAAAGGCCACCACAAACCCTT | -1.32
GCTTGAGGCCAGCTCATAGGGATCAGATAA | -1.27

Sequence | binding signal (log2 normalized intensity)
AAAATAGGGTAGTTTGGAGATGCCGTTAAG | -0.1
GGACTTTACACAGACCTTTACCCACGGTCA | 3.14
CCATTTTGCAATTGACAAATGGCTTGTGCT | -1.41
CCTCCCAGAGCATTGTTTATTGTTGCTGAT | 0.868
CGCGTCGAACTAGCTTGGTGCAGGGGCGGG | -1.08
CACATACACCTGCGTGTACTAAGGTCTTAA | 1.24
CATGTAACTGCTATTGGTTGTCAGACTGGT | 1.6
CTTGAAAGTAAGCAGACACTGAAAGATGGT | -1.22
GTTGCAAATTATTACTCCCACCGTGTGTGC | 0.679
GAAGAATGGAATTGCCATTGACTGAGATAG | -0.91
GGGACCAAGGGTCAGTTCATTAAAAAAAAA | 2.13
CTCGCTCGCCCGAGCGCTGCTTCTCGTCCC | -1.3
ACATACAACCATCAAAGGTCACTTTACAGA | 3.13
AGAGGTCGATCTGATCTTAAGTTGTACCTG | 3.09
AGGAGGCACTGATAAGCGTATTTCAACCTT | 0.651
CCCTGTAAGTCCAAACAAAATACAAACACG | 0.376
TGCAATGTTTCCAAACCCCTCGGGACCATG | -1.28
GATAGCAAAATCAATAAATCACACGAAACA | -1.24
AAGAGGAGAAGAATTTACCCAACTCATCAG | -1.14
AACTGTTTCTATGTGACCTTCACCCTGCTG | 4.81
CACAGCGCAGCACACTGCAGCGGCATTCTC | -1.35

— article PMC10726135
